Several values for one entry are separate records, joined by “and”; a condition that tells them apart may be missing. Identical values can stand only once. Among all 350,000 compounds or so, about 31,000 (8.9%) were called active. This list was built around the results that the source calls inconclusive (neither active nor inactive); the mix of calls is not that of the screen. Calls come from the whole dose curve; as a rule, active = well fitted inhibition curve with a large enough effect; inconclusive = small, poorly fitted or top-dose-only effect; inactive = no such curve, though single readings can be large or run the other way. A potency beside an inconclusive call is a rough fit, not a confirmed value.
Molecular target: Histone-lysine N-methyltransferase EHMT2 (Homo sapiens) (UniProt Q96KQ7)
Test: qHTS Assay for Inhibitors of Histone Lysine Methyltransferase G9a; note: nearly all actives have a fitted effect of over 75% in size
Details: G9a H3K9 monomethylation, AlphaScreen, 2 h; activity, negative = inhibition: at 59 µM (top of the series) unless noted
Method in brief: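 AlphaScreen detection with an anti-monomethyl H3K9 antibody quantified product after a 2 h room-temperature reaction containing 500 nM biotinylated H3K9 peptide, 20 µM SAM and 20 nM enzyme, which had been preincubated 15 min with compound.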
% is set by controls: 0 for no effect and ±100 for the full control effect; potency is the fitted concentration of half-maximal effect; tags give direction and shape of the fitted curve.

UniProt Q96KQ7, sequence (Q96KQ7 whole entry, looked up): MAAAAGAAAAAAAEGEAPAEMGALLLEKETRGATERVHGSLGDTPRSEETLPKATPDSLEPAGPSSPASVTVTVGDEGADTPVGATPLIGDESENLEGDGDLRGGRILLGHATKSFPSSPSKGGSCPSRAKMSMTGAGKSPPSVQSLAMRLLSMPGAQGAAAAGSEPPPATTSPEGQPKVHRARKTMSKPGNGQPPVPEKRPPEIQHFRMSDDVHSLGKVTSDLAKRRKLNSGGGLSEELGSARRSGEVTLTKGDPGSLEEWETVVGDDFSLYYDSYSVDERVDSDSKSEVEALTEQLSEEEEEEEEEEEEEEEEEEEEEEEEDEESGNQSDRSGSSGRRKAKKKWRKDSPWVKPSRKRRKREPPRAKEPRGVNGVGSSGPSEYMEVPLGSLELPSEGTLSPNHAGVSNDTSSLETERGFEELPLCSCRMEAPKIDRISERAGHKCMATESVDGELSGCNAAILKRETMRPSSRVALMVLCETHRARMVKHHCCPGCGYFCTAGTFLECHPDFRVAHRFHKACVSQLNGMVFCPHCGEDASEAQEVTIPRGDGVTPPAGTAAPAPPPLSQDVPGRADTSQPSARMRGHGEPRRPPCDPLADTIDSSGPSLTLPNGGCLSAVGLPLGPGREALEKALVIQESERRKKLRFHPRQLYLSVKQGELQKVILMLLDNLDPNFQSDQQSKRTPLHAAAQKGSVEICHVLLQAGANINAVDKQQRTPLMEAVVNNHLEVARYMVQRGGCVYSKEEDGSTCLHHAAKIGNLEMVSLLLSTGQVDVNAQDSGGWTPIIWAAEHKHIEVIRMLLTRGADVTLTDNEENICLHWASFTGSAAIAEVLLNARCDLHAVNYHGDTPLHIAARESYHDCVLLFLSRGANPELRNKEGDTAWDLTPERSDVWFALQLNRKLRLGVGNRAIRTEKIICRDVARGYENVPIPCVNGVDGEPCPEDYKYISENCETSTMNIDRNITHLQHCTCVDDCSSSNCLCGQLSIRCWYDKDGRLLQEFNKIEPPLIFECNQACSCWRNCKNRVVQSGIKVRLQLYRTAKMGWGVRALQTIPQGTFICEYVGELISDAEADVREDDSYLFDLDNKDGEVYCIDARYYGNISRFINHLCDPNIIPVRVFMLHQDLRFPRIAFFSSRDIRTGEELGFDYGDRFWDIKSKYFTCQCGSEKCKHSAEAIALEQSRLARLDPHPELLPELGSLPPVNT

SMILES	Potency	activity, negative = inhibition
O=C(COC(=O)c1ccccc1C(=O)c1ccc(Cl)c([N+](=O)[O-])c1)NC1CCCCCC1	inconclusive: 14.1 µM [inhibitor, partial curve, poor fit]	–
O=C(COC(=O)C1=COCCO1)Nc1ccc([N+](=O)[O-])cc1C(F)(F)F	inconclusive: 28.2 µM [inhibitor, single point]	–
COc1ccc(CCSc2nnc(C3CCCCC3)n2N)cc1	inconclusive: 25.1 µM [inhibitor, single point]	–
Cc1cc(C(=O)COc2cccnc2[N+](=O)[O-])c(C)n1Cc1ccco1	inconclusive: 50.1 µM [inhibitor, partial curve, poor fit]	–
CCC(=O)N(Cc1cc(=O)[nH]c2ccccc12)c1cccc(C)c1	active: 10 µM	–
CC(C)[C@@H](N)C(=O)N/N=C/c1ccc2nccnc2c1	active: 5.62 µM	–
O=[N+]([O-])c1ccc2nc(SCc3cn4cccnc4n3)[nH]c2c1	–	inconclusive: -68.9% [inhibitor]
Cc1ccc(N2CCN(C(=S)c3ccc(N(C)C)cc3)CC2)cc1	active: 5.01 µM	–
CC(=O)Nc1cccc(NC(=O)c2cc(-c3cccnc3)nc3ccc(Cl)cc23)c1	inconclusive: 79.4 µM [inhibitor, partial curve, poor fit]	–
CCOC(=O)C(=Cc1ccc(-n2cncn2)cc1)C(=O)OCC	inconclusive: 44.7 µM [inhibitor, partial curve]	–
CCN1CCN(C(CNC(=O)c2ccc3c(c2)OCO3)c2cccnc2)CC1 (configuration not stated)	inconclusive: 79.4 µM [inhibitor, single point]	–
Cc1ccc(S(=O)(=O)c2nc(-c3cccs3)oc2SCC(N)=O)cc1	–	inconclusive: -77.5% [inhibitor]
CC(=O)c1cccc(NC(=O)c2cc(=O)[nH]c3ccccc23)c1	active: 44.7 µM	–
O=C(Oc1ccc(OC(=O)C2CCC2)cc1)C1CCC1	–	inactive: -3.96%
O=C(CC(NS(=O)(=O)c1ccc(Cl)cc1)c1ccco1)N1CCc2ccccc21 (configuration not stated)	inconclusive: 2 µM [inhibitor, partial curve, poor fit]	–
Cc1c(-c2cc(Br)ccc2O)nc2cc3c(cc2c1C)OCO3	active: 44.7 µM	–
COc1cccc(NC(=O)CN(C)C(=O)c2cc(-c3cccc(Br)c3)nc3ccccc23)c1	inconclusive: 3.16 µM [inhibitor, full curve, poor fit]	–
CCN(c1ccccc1)S(=O)(=O)c1ccc(NC(=O)c2cc(=O)c3cc(C)c(C)cc3o2)cc1	–	inactive: 2.16%
O=C(COC(=O)CNC(=O)c1cccc(Br)c1)Nc1nnc(-c2ccccc2)o1	–	inactive: -13.3% [at 12.7 µM]
O=C(NC(C(=O)c1ccccc1)N1CCCCC1)c1ccccc1 (configuration not stated)	–	inconclusive: -64.9% [inhibitor]
CCCCN1CCc2nc(N3CCN(c4ncccn4)CC3)ncc2C1	active: 17.8 µM	–
COc1ccc(N2CCN(CCCNC(=O)C3CCN(S(=O)(=O)N4CCOCC4)CC3)CC2)cc1	inconclusive: 70.8 µM [inhibitor, single point]	–
Cc1cc(C)cc(NC(=O)CN2CCN(c3ncccn3)CC2)c1	–	inactive: 4.84% [at 102 µM]
CN=C(Nc1cc(C)nn1CCC#N)c1ccccc1	inconclusive: 39.8 µM [inhibitor, single point]	–

SMILES	Potency	activity, negative = inhibition
COc1ccc2nc(NC(=O)C3CSC4(C)CCC(=O)N34)sc2c1 (configuration not stated)	inconclusive: 25.1 µM [inhibitor, single point]	–
CCOc1ccc(CNC2CCCc3ccccc32)cc1 (configuration not stated)	active: 11.2 µM	–
Cc1ccc(N2CCN(CC(O)COc3cccc(C)c3)CC2)cc1 (configuration not stated)	inconclusive: 70.8 µM [inhibitor, single point]	–
N#Cc1cc(S(=O)(=O)c2ccccc2)c(N)[nH]c1=O	inconclusive: 1 µM [inhibitor, full curve, poor fit]	–
COc1ccccc1C1=NNC(=Nc2cccc(S(=O)(=O)N(C)C)c2)SC1	active: 15.8 µM	–
CN(C)CCSc1nc(N)c2c3c(sc2n1)COC(C)(C)C3	inconclusive: 39.8 µM [inhibitor, single point]	–
COc1ccccc1N1CCN(C(=O)Cn2c(=O)nc(-c3ccccc3)c3cc(Cl)ccc32)CC1	–	inactive: 4.6%
CCOC(=O)c1ccc(NC(=O)CSc2nnc(CNc3ccc(OC)cc3)n2C)cc1	inconclusive: 39.8 µM [inhibitor, partial curve, poor fit]	–
CC(=O)c1ccc(OCC(O)CN2CCN(CC(O)COc3ccc(C(C)=O)cc3)CC2)cc1 (configuration not stated)	–	inactive: -0.824%
CCOC(=O)[C@@H]1[C@H]2COc3cc(OC)ccc3[C@H]2N2C(=O)N(c3ccc(C(F)(F)F)cc3)C(=O)[C@@]12C	–	inactive: -3.32% [at 102 µM]
CCOc1ccc(/C=N/NC(=O)c2cc3c(OC)cccc3[nH]2)cc1	inconclusive: 89.1 µM [inhibitor, single point]	–
COCCn1c(CN2CCN(c3ccc(OC)cc3)CC2)nc2c1c(=O)n(C)c(=O)n2C	–	inactive: -12.8%
O=C(CSc1nnc(-c2ccc(OC(F)F)cc2)o1)NC(=O)NCc1ccco1	inconclusive: 50.1 µM [inhibitor, partial curve]	–
COc1ccc(/C(C)=N/OCC(=O)Nc2nc3ccccc3s2)cc1OC	active: 50.1 µM	–
O=C(Nc1ccc2c(c1)CCC2)c1ccc(Br)s1	inconclusive: 89.1 µM [inhibitor, single point]	–
Cc1ccc(-n2nc3c(c2NC(=O)CC(C)C)CS(=O)(=O)C3)cc1	–	inactive: 6.7%
COc1cccc(-n2cc(C(=O)NCc3cccc(Cl)c3)c3ccccc3c2=O)c1	inconclusive: 10 µM [inhibitor, partial curve, poor fit]	–
CCOC(=O)Cn1c(=O)n(C2CCCCC2)c2nc(-c3ccc(Cl)cc3)nc(C(N)=O)c21	–	inactive: -1.53%
N#CC(=C(/N)Sc1ccccc1N)/C(C#N)=C(\N)Sc1ccccc1N	active: 8.91 µM and active: 12.6 µM	–
CCCc1cc(=O)oc2cc(OCc3cccc(OC)c3)c(Cl)cc12	inconclusive: 39.8 µM [inhibitor, single point]	–
Cc1ccc(C(=O)OCC(=O)NCCC2=CCCCC2)s1	inconclusive: 20 µM [inhibitor, single point]	–
Cc1ccc(S(=O)(=O)N2CCN(C(=O)c3ccc(N4CCCCC4)c([N+](=O)[O-])c3)CC2)cc1	active: 31.6 µM	–
CCCNC(=O)c1cc(-c2ccco2)on1	inconclusive: 39.8 µM [inhibitor, single point]	–
Clc1ccc(-c2cn3nc4c(nc3n2)CCCC4)cc1	inconclusive: 5.62 µM [inhibitor, single point]	–

SMILES	Potency	activity, negative = inhibition
Cc1ccc(S(=O)(=O)N(C)C)cc1NC(=S)N1CCCCC1CO (configuration not stated)	inconclusive: 1.58 µM [inhibitor, full curve, poor fit]	–
CCCCn1c(N)c(N(CCOC)C(=O)c2ccc(-c3ccc(C(C)=O)cc3)o2)c(=O)[nH]c1=O	active: 12.6 µM	–
O=[N+]([O-])c1cccc(-c2nnc3cccc(Cl)n23)c1	–	inactive: -41.5% [at 102 µM]
COc1cc2c(cc1OC)CN(Cc1ccc(OC)c(C)c1OC)CC2	inconclusive: 2.82 µM [inhibitor, partial curve, poor fit]	–
Cc1ccc2c(=O)cc(CSc3nnc(-c4ccccc4)n3C)[nH]c2c1C	–	inactive: 19.5%
COc1ccc(NC(=O)c2c(-c3ccccc3)c(-c3ccccc3)nn(C)c2=O)c(OC)c1	–	inactive: -32.3%
CC(C)NC(=O)CSc1nnc(-c2ccc(F)cc2)c2ccccc12	inconclusive: 63.1 µM [inhibitor, partial curve, poor fit]	–
Clc1ccc2c(N/N=C/c3cccnc3)ccnc2c1	–	inactive: -8.22% [at 102 µM]
O=C(c1ccco1)N1CCN(C(=O)c2cccc3c2C(=O)N(Cc2cccnc2)C3)CC1	inconclusive: 89.1 µM [inhibitor, single point]	–
COc1ccc(-c2c3c(=O)n(C)c(=O)n(C)c3cn2Cc2ccccn2)cc1	inconclusive: 10 µM [inhibitor, partial curve, poor fit]	–
CSc1nc2c(c(=O)n1C)SC(C)C2 (configuration not stated)	–	inactive: -50.4%
O=C(O)c1cccc(Cn2c(Cl)c(/C=N/NC(=O)c3ccccc3)sc2=O)c1	–	inactive: 31.4% [at 0.501 µM]
CC(C)(C)c1ccccc1OCC(=O)Nc1ncn[nH]1	active: 35.5 µM	–
CC1=[N+]([O-])C(C)(C)CC(C)(C)c2ccccc21	–	inconclusive: -83.3% [inhibitor]
Cn1c(SCC(=O)c2cccs2)nnc1-c1ccco1	active: 50.1 µM	–
COc1cc(NC(=O)c2cc([N+](=O)[O-])ccc2Br)ccc1NC(=O)c1ccco1	inconclusive: 1 µM [inhibitor, full curve, poor fit]	–
CCOC(=O)N1CCN(c2c(NCc3cccs3)c(=O)c2=O)CC1	–	inactive: 5.5% [at 102 µM]
CCCCc1n[nH]c(=S)n1Cc1ccc(Cl)cc1	active: 3.55 µM	–
COc1ccc(C(=O)Nc2ccccc2C(=O)NC(Cc2ccc(O)cc2)C(=O)NNC(=O)c2ccccc2Cl)cc1 (configuration not stated)	–	inactive: -27.5%
CCCCCC(=O)Nc1ccc(S(=O)(=O)Nc2nccc(C)n2)cc1	inconclusive: 79.4 µM [inhibitor, partial curve, poor fit]	–
COC(=O)C1CCN(C(=O)c2ccc3nccnc3c2)CC1	inconclusive: 28.2 µM [inhibitor, partial curve]	–
Cc1c(CNC(C)CCc2ccccc2)c(C(=O)O)c(C)n1Cc1ccc(F)cc1Cl (configuration not stated)	–	inactive: -1.24%
COc1ccc(CN2COc3ccc4c(oc(=O)c5ccccc54)c3C2)cc1OC	active: 0.794 µM	–
CCOc1ccc(NC(=S)N(CCc2c(C)[nH]c3ccc(C)cc23)Cc2ccco2)cc1	active: 70.8 µM	–
